Measurements published in paper PMC9896144, “A “grappling hook” interaction connects self-assembly and chaperone activity of Nucleophosmin 1” (PNAS Nexus, 2023).
“And” between values parts separate entries of the source, which are not always exact repeats. Equal values may be shown once.

Biological target: the molecule itself
Experiment: native MS; each NPM1 variant alone; nESI with collision-induced dissociation, collision voltages 25 to 75 V

B1: NPM1_(240), the NTD and the entire IDR of NPM1 (domain or fragment)
chain: not shown
notes: Nucleophosmin 1, human, NTD and entire IDR, C-terminally truncated at residue 240; exact construct and tags are in the supplementary methods; Mostly pentameric; also called NPM240; source: produced by the authors
stoichiometry N: 5 and 10
